# According to the supplement of paper PMC10723795:
# “And” between values parts separate entries of the source, which are not always exact repeats. Equal values may be shown once. Where a name gives a salt, the structure may show the parent alone. The list shows a part of the results.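 The calls were made as follows: active = more than 2 SD below the DMSO mean: under 0.85 at 10 µM or 0.885 at 1 µM; inactive = the rest.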 Many values rest on one well or one pass, so single values are uncertain.
# System: RPE1
# Assay: nucleolar normality score relative to DMSO (fraction of DMSO control); RPE1 is a non-cancer human cell line; higher = more normal nucleoli (less nucleolar stress)
# Details: 24 h
# 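Also: fixed cells immunolabelled for nucleolin and UBF, 40 image fields per well in 384-well plates, per-cell score = nucleolin nucleolar/nucleoplasm intensity ratio divided by the matching UBF ratio.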
SMILES,nucleolar normality score (1 µM),nucleolar normality score (10 µM)
Cc1ccc([C@@H]2O[C@H](CO)[C@@H](O)[C@H](O)[C@H]2O)cc1Cc1ccc(-c2ccc(F)cc2)s1 [Canagliflozin],inactive: 1.08,inactive: 0.929
O=C(Oc1cccc(F)c1OC(=O)c1cccc(O)c1)c1cccc(O)c1,inactive: 0.978,inactive: 1.08
COc1ccc(Cl)cc1NC(=O)Nc1cc(C)nc2ccccc12,inactive: 0.981,inactive: 0.931
COc1cc2ncnc(Nc3cccc(Cl)c3F)c2cc1OC(=O)N1CCN(C)C[C@H]1C,inactive: 0.915,inactive: 1.02
CC(C)Oc1ccc(-c2nn([C@@H](C)c3oc4ccc(F)cc4c(=O)c3-c3cccc(F)c3)c3ncnc(N)c23)cc1F [umbralisib (TGR-1202)],inactive: 1.05,inactive: 1.04
COc1cccc2c1C(=O)c1c(O)c3c(c(O)c1C2=O)CC(O)(C(=O)CO)CC3OC1CC(N)C(O)C(C)O1 (centres undefined) [Doxorubicin (Adriamycin) HCl],active: 0.788,active: 0.618
COc1cc(Nc2c(C#N)cnc3cc(OCCCN4CCN(C)CC4)c(OC)cc23)c(Cl)cc1Cl [Bosutinib (SKI-606)],active: 0.854,inactive: 0.891
CN(c1ncccc1CNc1nc(Nc2ccc3c(c2)CC(=O)N3)ncc1C(F)(F)F)S(C)(=O)=O,inactive: 1.01 and inactive: 1.06,inactive: 0.872 and inactive: 0.902
CCOC(=O)c1cc(O)c(O)c(O)c1 [Ethyl gallate],inactive: 1.01,inactive: 1.08
CN1CCCN(C(=O)c2cccc(-c3ccc(/C=C4/C(=O)Nc5ccc(Cl)cc54)o3)c2)CC1,inactive: 1.01,active: 0.847
CNc1ccc([N+](=O)[O-])c(Nc2ccc3[nH]ncc3c2)n1,inactive: 1.03,active: 0.808
O=C1c2c(O)ccc(O)c2C(=O)c2c(NCCNCCO)ccc(NCCNCCO)c21 [Mitoxantrone 2HCl],active: 0.121,active: 0.22
O=C(NNc1nc2cc(F)ccc2n2cccc12)c1cnccn1,inactive: 0.964,inactive: 0.902
CC(C)c1cc(C(C)C)c(CC(=O)NS(=O)(=O)Oc2c(C(C)C)cccc2C(C)C)c(C(C)C)c1 [Avasimibe],inactive: 1.02,inactive: 0.965
"Cc1cc(Nc2ncnc3ccc(NC4=NC(C)(C)CO4)cc23)ccc1Oc1ccn2ncnc2c1 [Irbinitinib (ARRY-380, ONT-380)]",inactive: 1.03,inactive: 0.991
C=CCNc1ncnc2ccc(Br)cc12,inactive: 0.977,inactive: 0.986
COc1cc(Nc2ncc3c(n2)-c2ccc(Cl)cc2C(c2c(F)cccc2OC)=NC3)ccc1C(=O)O [Alisertib (MLN8237)],active: 0.801,inactive: 0.923
Cc1ccc(Nc2nccc(N(C)c3ccc4c(C)n(C)nc4c3)n2)cc1S(N)(=O)=O,inactive: 1.02,inactive: 1.02
CCc1ccc(/C=C2/SC(=S)NC2=O)cc1,inactive: 0.927,inactive: 0.985

SMILES,nucleolar normality score (1 µM),nucleolar normality score (10 µM)
O=c1cc(N2CCOCC2)oc2c(-c3ccccc3)cccc12,inactive: 1.02,inactive: 1.03
COc1cccc(-c2cc(F)ccc2C2Cc3nc(N)nc(C)c3C(=O)N2)n1 (centres undefined),active: 0.384,active: 0.398
CCOC(N)=O [Urethane],inactive: 1.03,inactive: 1.06
Nc1ncccc1-c1nc2ccc(-c3ccccc3)nc2n1-c1ccc(C2(N)CCC2)cc1 [Miransertib (ARQ 092) HCl],inactive: 1,inactive: 1
COc1ccc2cc1Oc1ccc(cc1)C[C@H]1c3cc(c(OC)cc3CCN1C)Oc1c(O)c(OC)cc3c1[C@H](C2)N(C)CC3 [Fangchinoline],inactive: 0.993,inactive: 1.01
COc1ccc2cc1Oc1ccc(cc1)C[C@H]1c3cc(c(OC)cc3CCN1C)Oc1c(O)c(OC)cc3c1[C@H](C2)N(C)CC3 [(+)-Fangchinoline],inactive: 1.02,inactive: 1.03
O=C1c2cccc(O)c2C(=O)c2c(O)cccc21 [Danthron],inactive: 1.07,inactive: 1.07
"Cc1c(C(=O)Nc2ccc(N3C[C@@H](C)O[C@@H](C)C3)nc2)cccc1-c1ccc(OC(F)(F)F)cc1 [Sonidegib (Erismodegib, NVP-LDE225)]",inactive: 1.02,inactive: 1.08
"Nc1cc(C(F)(F)F)c(-c2cc(N3CCOCC3)nc(N3CCOCC3)n2)cn1 [Buparlisib (BKM120, NVP-BKM120)]",inactive: 1.03,inactive: 0.977
Cc1cnc(NC(=O)Nc2cc(Br)c(C)cc2OC[C@@H]2CNCCO2)cn1,inactive: 0.994,inactive: 0.928
Clc1ccc(C(c2ccccc2Cl)C(Cl)Cl)cc1 (centres undefined) [Mitotane],inactive: 1.03,inactive: 0.988
c1ccc(-c2nn3c(c2-c2ccnc4cc(OCCN5CCOCC5)ccc24)CCC3)nc1,active: 0.884,inactive: 0.953
Nc1ccc(C(=O)O)c(O)c1 [4-Aminosalicylic acid],inactive: 1.03,inactive: 0.878
COc1cc(CCc2cc(NC(=O)c3ccc(N4CC(C)NC(C)C4)cc3)n[nH]2)cc(OC)c1 (centres undefined),inactive: 1,inactive: 0.882
CNCc1ccc(C)c(NC(=O)c2ccc(Nc3nc(-c4ccccc4)c4ccccc4n3)cc2)c1,inactive: 0.91,inactive: 0.973
Cc1cc(F)c(C(=O)Nc2cccc(-c3nncn3C(C)C)n2)cc1-n1cnc(C2CC2)c1 [Selonsertib (GS-4997)],inactive: 0.958,inactive: 1.03
CC(C)(O)CC(=O)NCCn1ccc2ncnc(Nc3ccc(Oc4cccc(C(F)(F)F)c4)c(Cl)c3)c21,inactive: 1.02,inactive: 1.05
"C[C@H](Nc1ncnc2nc[nH]c12)c1cc2cccc(Cl)c2c(=O)n1-c1ccccc1 [Duvelisib (IPI-145, INK1197)]",inactive: 1.04,inactive: 0.875
O=S(=O)(c1cccc2cnccc12)N1CCCNCC1 [Fasudil (HA-1077) HCl],inactive: 0.995,inactive: 1.01

SMILES,nucleolar normality score (1 µM),nucleolar normality score (10 µM)
"O=C(c1ccc(F)c(F)c1Nc1ccc(I)cc1F)N1CC(O)([C@@H]2CCCCN2)C1 [Cobimetinib (GDC-0973, RG7420)]",inactive: 1.02,inactive: 1.07
O=C(CSc1nc2c(c(=O)n1-c1ccccc1)SCC2)Nc1ccc(-c2ccccc2)cn1,inactive: 1.01,inactive: 1.02
CCC(C)(C)C(=O)O[C@H]1C[C@@H](C)C=C2C=C[C@H](C)[C@H](CC[C@@H]3C[C@@H](O)CC(=O)O3)[C@H]21 [Simvastatin],inactive: 0.976,inactive: 1.03
CC(/C=C/C=C(\C)C(=O)O[C@@H]1O[C@H](CO[C@@H]2O[C@H](CO)[C@@H](O)[C@H](O)[C@H]2O)[C@@H](O)[C@H](O)[C@H]1O)=C\C=C\C=C(C)\C=C\C=C(/C)C(=O)O[C@@H]1O[C@H](CO[C@@H]2O[C@H](CO)[C@@H](O)[C@H](O)[C@H]2O)[C@@H](O)[C@H](O)[C@H]1O [Crocin],inactive: 1.04,inactive: 0.903
N#CC[C@H](C1CCCC1)n1cc(-c2ncnc3[nH]ccc23)cn1,inactive: 1.06 and inactive: 1.11,inactive: 1.13 and inactive: 0.929
N#CC[C@H](C1CCCC1)n1cc(-c2ncnc3[nH]ccc23)cn1 [Ruxolitinib Phosphate],inactive: 0.945,inactive: 0.983
CCOC(=O)c1c2c3c(cccc3[nH]c1=O)C(=O)c1ccccc1-2,inactive: 1.01,inactive: 1.02
Nc1nc(N)c2nc(-c3cccc(O)c3)c(-c3cccc(O)c3)nc2n1,inactive: 0.959,inactive: 1.06
Cn1cnc2c(F)c(Nc3ccc(Br)cc3Cl)c(C(=O)NOCCO)cc21 [Selumetinib (AZD6244)],inactive: 0.989,inactive: 1.01
C=CC(=O)N[C@H]1CCOC[C@H]1Nc1ncc2cc(-c3c(Cl)c(OC)cc(OC)c3Cl)ccc2n1,inactive: 0.98,inactive: 1.05
CC(ONC(=O)c1cc(C(F)(F)F)cc(C(F)(F)F)c1)C(=O)Nc1ccc(Cl)cc1 (centres undefined),inactive: 1.02,inactive: 1.08
N#CC1(c2ccc(NC(=O)c3cccnc3NCc3ccncc3)cc2)CCCC1 [Apatinib],inactive: 1,inactive: 1.05
Cn1nnc2c(C(N)=O)ncn2c1=O [Temozolomide],inactive: 0.92,inactive: 0.906
C=C1C(=O)O[C@H]2[C@H]1CC/C(C)=C/CC[C@@]1(C)O[C@@H]21 [(-)-Parthenolide],inactive: 1.06,inactive: 0.922
COc1ccc(CCC(=O)Nc2nc3ccc(Cl)cc3s2)cc1OC,inactive: 1.06,inactive: 1.12
Cc1cc2c(C(=O)NCC(C)c3ccccc3)c(O)c(O)cc2c(O)c1-c1c(C)cc2c(C(=O)NCC(C)c3ccccc3)c(O)c(O)cc2c1O (centres undefined) [Sabutoclax],inactive: 1.03,inactive: 0.918
COc1ccc(-c2cc3nccn3c(Nc3ncccc3C(N)=O)n2)cc1OC,inactive: 1.02,inactive: 0.861
COC(=O)C=Cc1ccc(O)c(OC)c1 [Ferulic acid methyl ester],inactive: 1.01,inactive: 1.03
CC(C)(C)NC(=O)[C@H]1CC[C@H]2[C@@H]3CC[C@H]4NC(=O)C=C[C@]4(C)[C@H]3CC[C@]12C [Finasteride],inactive: 0.979,inactive: 1.06
